Assay results: paper PMC12500962
These are yes or no findings as the source states them, for the method shown. In cells and extracts the contact can be indirect. Some entries that bind do so weakly or less than the wild type.

Tests used:
[1] = biological target: T1, pancreatic progenitor cell differentiation and proliferation factor (PPDPF) (human (endogenous in DLD1, HT29, HCT116, RKO)) (UniProt Q9H3Y8); assay: co-IP; DLD1 and HT29 cells transfected with control plasmid or full-length APC plasmid; which protein was precipitated is not told
T1 sequence: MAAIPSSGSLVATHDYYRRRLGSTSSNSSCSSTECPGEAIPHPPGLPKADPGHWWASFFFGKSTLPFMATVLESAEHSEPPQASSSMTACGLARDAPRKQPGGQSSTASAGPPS

[2] = biological target: β-catenin (human (endogenous in DLD1, HT29, HCT116, RKO)) (UniProt P35222); assay: as above
[3] = biological target: T2, dishevelled (Dvl), DVL1 (human (endogenous in DLD1, HT29, HCT116, RKO)) (UniProt O14640); assay: as above
T2 sequence: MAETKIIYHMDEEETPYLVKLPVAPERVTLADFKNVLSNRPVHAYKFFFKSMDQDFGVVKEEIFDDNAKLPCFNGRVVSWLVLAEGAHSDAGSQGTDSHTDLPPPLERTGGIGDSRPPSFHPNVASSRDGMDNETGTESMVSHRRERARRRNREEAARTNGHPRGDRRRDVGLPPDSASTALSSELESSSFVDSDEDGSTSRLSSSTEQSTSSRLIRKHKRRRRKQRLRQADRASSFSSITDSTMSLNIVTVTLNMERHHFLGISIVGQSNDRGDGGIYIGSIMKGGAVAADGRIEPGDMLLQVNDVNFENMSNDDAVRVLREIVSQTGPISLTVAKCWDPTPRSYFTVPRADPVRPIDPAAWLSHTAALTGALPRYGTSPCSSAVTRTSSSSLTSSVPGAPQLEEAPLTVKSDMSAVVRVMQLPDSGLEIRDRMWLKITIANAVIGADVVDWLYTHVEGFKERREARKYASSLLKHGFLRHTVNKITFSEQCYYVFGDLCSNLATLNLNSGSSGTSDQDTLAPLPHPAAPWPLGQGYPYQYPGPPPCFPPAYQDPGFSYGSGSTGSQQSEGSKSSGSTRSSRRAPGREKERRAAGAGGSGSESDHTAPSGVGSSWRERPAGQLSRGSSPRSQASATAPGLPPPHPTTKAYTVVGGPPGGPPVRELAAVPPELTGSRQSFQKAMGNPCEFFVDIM

[4] = biological target: T1, pancreatic progenitor cell differentiation and proliferation factor (PPDPF) (human (endogenous in DLD1, HT29, HCT116, RKO)); assay: proximity ligation; DLD1, HT29 and HCT116 cells transfected with full-length APC plasmid; primary antibodies against the two proteins; confocal microscopy
[5] = biological target: T2, dishevelled (Dvl), DVL1 (human (endogenous in DLD1, HT29, HCT116, RKO)); assay: as above
[6] = biological target: T1, pancreatic progenitor cell differentiation and proliferation factor (PPDPF) (human (endogenous in DLD1, HT29, HCT116, RKO)); assay: condition: only cells without full-length APC overexpression (DLD1, HT29, HCT116); proximity ligation; DLD1, HT29 and HCT116 cells without full-length APC plasmid; primary antibodies against the two proteins; confocal microscopy
[7] = biological target: T2, dishevelled (Dvl), DVL1 (human (endogenous in DLD1, HT29, HCT116, RKO)); assay: as above
[8] = biological target: T1, pancreatic progenitor cell differentiation and proliferation factor (PPDPF) (human (endogenous in DLD1, HT29, HCT116, RKO)); assay: condition: only in HCT116 cells (control or full-length APC plasmid); co-IP; HCT116 cells transfected with control or full-length APC plasmid; which protein was precipitated is not told
[9] = biological target: T2, dishevelled (Dvl), DVL1 (human (endogenous in DLD1, HT29, HCT116, RKO)); assay: as above
[10] = biological target: β-catenin (human (endogenous in DLD1, HT29, HCT116, RKO)) (UniProt P35222); assay: proximity ligation; DLD1, HT29 and HCT116 cells without full-length APC plasmid; primary antibodies against the two proteins; confocal microscopy

binding [1]: binds | binding [2]: binds | binding [3]: binds | binding [4]: binds | binding [5]: binds | binding [6]: no binding | binding [7]: no binding | binding [8]: no binding | binding [9]: no binding | binding [10]: binds
Substance: HECT, UBA, and WWE domain containing E3 ligase 1 (HUWE1) (from UniProt Q7Z6Z7 1-4374) (enzyme)
